Planktonic growth data for 21 compounds are collected here from the supplement of paper PMC7580552.

Counter-ions that a name gives are not always drawn. The list shows a part of the results. Single values are uncertain, as repeats are few or missing.
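Also: stationary (unshaken) cultures in 96-well plates, started at OD600 0.05 from mid-exponential cells, with compounds supplied from DMSO stocks.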

The assay deals with Escherichia coli W3110. Description: planktonic growth (OD600) relative to untreated control; higher = more growth. As to conditions: 10 µM; 20-24 h; 30 °C; TB.
As to `CN1C(C)(C)CCCC1(C)C` [Pempidine], the planktonic growth worked out at 112%.

`Cc1onc(-c2c(Cl)cccc2Cl)c1C(=O)N[C@@H]1C(=O)N2[C@@H]1SC(C)(C)[C@@H]2C(=O)O` [Dicloxacillin sodium salt hydrate] yielded a planktonic growth of 82%. As for `CCOC(=O)[C@H](CCc1ccccc1)N[C@@H](C)C(=O)N1Cc2ccccc2C[C@H]1C(=O)O` [Quinapril hydrochloride], the planktonic growth worked out at 108%. `CC(CCc1ccccc1)NCC(O)c1ccc(O)c(C(N)=O)c1` (stereo unspecified) [Labetalol hydrochloride] returned a planktonic growth of 92%. With `O=C(O)c1cccnc1Nc1cccc(C(F)(F)F)c1` [Niflumic acid] the figure was 77%; with `Cc1oncc1C(=O)Nc1ccc(C(F)(F)F)cc1` [Leflunomide], 95%.

Take `COc1ccc(C(Cl)=C(c2ccc(OC)cc2)c2ccc(OC)cc2)cc1` [Chlorotrianisene]: the planktonic growth was 102%. With `COC(=O)Nc1nc2cc(C(=O)c3ccccc3)ccc2[nH]1` [Mebendazole], the planktonic growth came out at 89%. `CC(C)c1ccc2oc3nc(N)c(C(=O)O)cc3c(=O)c2c1` [Amlexanox] came in with a planktonic growth of 111%. The compound `CC1(C)S[C@@H]2[C@H](NC(=O)[C@H](NC(=O)N3CCNC3=O)c3ccccc3)C(=O)N2[C@H]1C(=O)O` [Azlocillin sodium salt] had a planktonic growth of 48%. The compound `NCCNCCNCCNCCN` [Tetraethylenepentamine pentahydrochloride] had a planktonic growth of 80%. `Cc1cc2c(cc1S(N)(=O)=O)S(=O)(=O)CCC2` [Meticrane]: the planktonic growth worked out at 91%. With `COC(c1ccccc1)(c1ccccc1)[C@H](Oc1nc(C)cc(C)n1)C(=O)O` [Ambrisentan] the figure was 102%. `Cc1c(C)c2c(c(C)c1O)CCC(C)(COc1ccc(CC3SC(=O)NC3=O)cc1)O2` (stereo unspecified) [Troglitazone] gave a planktonic growth of 96%. Compound `CC(C(=O)O)c1ccc2c(c1)Cc1cccnc1O2` (stereo unspecified) [Pranoprofen] displayed a planktonic growth of 121%. To `CSc1ccc2c(c1)C(N1CCN(C)CC1)Cc1ccccc1S2` (stereo unspecified) [Methiothepin maleate] belongs 99%; to `Cc1cc(C(C)(C)C)c(O)c(C)c1CC1=NCCN1` [Oxymetazoline hydrochloride], 91%; to `CN(C)CCCN1c2ccccc2Sc2ccccc21` [Promazine hydrochloride], 98%. Regarding `NS(=O)(=O)c1cc(C(=O)O)cc(N2CCCC2)c1Oc1ccccc1` [Piretanide], the planktonic growth stood at 105%. As for `CC(C)(C(=O)O)c1ccc(C(O)CCCN2CCC(C(O)(c3ccccc3)c3ccccc3)CC2)cc1` (stereo unspecified) [Fexofenadine hydrochloride], the planktonic growth stood at 100%.

As for `COc1ccc([C@@H]2CC(=O)c3c(O)cc(O[C@@H]4O[C@H](CO[C@@H]5O[C@@H](C)[C@H](O)[C@@H](O)[C@H]5O)[C@@H](O)[C@H](O)[C@H]4O)cc3O2)cc1O` [Hesperidin], the planktonic growth worked out at 103%.
